Test results published in the supplement of paper PMC9174493.
Where a name gives a salt, the structure may show the parent alone. The list shows a part of the results. Single values of this set are uncertain. Values with irradiation are relative to irradiated vehicle.
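Note: viability correction based on the alamar blue assay, with concentrations leaving 10% survival or less dropped.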

Each molecule was assayed on A549-Dual (assay: NF-kB reporter (SEAP) activity, viability-corrected, relative to vehicle (fold change vs vehicle); higher = more activation of STING-IRF / NF-kB immune response reporter). Details: 1 µM; irradiation: 8 Gy/4 fr.
`CCC(=O)OCC(=O)C1(OC(=O)CC)C(C)CC2C3CCC4=CC(=O)C=CC4(C)C3(Cl)C(O)CC21C` (centres undefined) [Beclomethasone dipropionate] gave an NF-kB reporter of 1.07.
`CC(=O)Nc1ccc(OC(=O)c2ccccc2OC(C)=O)cc1` [Benorylate] was tested, and the NF-kB reporter was 1.05.
For `Nc1ccccc1NC(=O)c1ccc(CNC(=O)OCc2cccnc2)cc1` [Entinostat (MS-275)], the NF-kB reporter was 0.729.
Molecule `COc1cc(N2CCC(N3CCN(C)CC3)CC2)ccc1Nc1ncc(Cl)c(Nc2ccccc2P(C)(C)=O)n1` has an NF-kB reporter of 0.871.
`Cc1c(-c2ccc(-c3ccccc3F)cc2)nc2ccc(F)cc2c1C(=O)O` [Brequinar] was tested, and the NF-kB reporter was 0.837.
In the case of `CCC1/C=C(\C)CC(C)CC(OC)C2OC(O)(C(=O)C(=O)N3CCCCC3C(=O)OC(/C(C)=C/C3CCC(Cl)C(OC)C3)C(C)C(O)CC1=O)C(C)CC2OC` (centres undefined) [Pimecrolimus], the NF-kB reporter was 1.12.
`COC(=O)/C=C/C(=O)OC` [Dimethyl Fumarate] showed an NF-kB reporter of 0.573.
`Cc1cc(Nc2ncc(Cl)c(Nc3ccccc3S(=O)(=O)C(C)C)n2)c(OC(C)C)cc1C1CCNCC1` [Ceritinib (LDK378)] was tested, and the NF-kB reporter was 0.974.
Work on `Nc1nc(Cl)nc2c1ncn2C1CC(O)C(CO)O1` (centres undefined) [Cladribine] yielded an NF-kB reporter of 0.776.
Work on `CC12CCC(=O)C=C1CCC1C2C(O)CC2(C)C1CCC2(O)C(=O)CO` (centres undefined) [Hydrocortisone] yielded an NF-kB reporter of 1.32.
`Cc1coc2c1C(=O)C(=O)c1c-2ccc2c(C)cccc12` [Tanshinone I] gave an NF-kB reporter of 1.44.
`Cn1cnc([N+](=O)[O-])c1Sc1ncnc2nc[nH]c12` [Azathioprine] showed an NF-kB reporter of 1.32.
`O=c1ccc2cc3ccoc3cc2o1` [Psoralen] was tested, and the NF-kB reporter was 0.986.
Work on `CCC(=O)NS(=O)(=O)c1ccc(-c2c(-c3ccccc3)noc2C)cc1` [Parecoxib] yielded an NF-kB reporter of 1.12.
`COc1ccc(-c2ccc3cc(C(=O)O)ccc3c2)cc1C12CC3CC(CC(C3)C1)C2` [Adapalene] gave an NF-kB reporter of 1.34.
In the case of `CCC(C(=O)O)c1ccc(N2Cc3ccccc3C2=O)cc1` (centres undefined) [Indobufen], the NF-kB reporter was 1.19.
`COC1CC2CCC(C)C(O)(O2)C(=O)C(=O)N2CCCCC2C(=O)OC(C(C)CC2CCC(O)C(OC)C2)CC(=O)C(C)/C=C(\C)C(O)C(OC)C(=O)C(C)CC(C)/C=C/C=C/C=C/1C` (centres undefined) [Rapamycin (Sirolimus)] was tested, and the NF-kB reporter was 1.57.
`COc1ccc(C2CNC(=O)C2)cc1OC1CCCC1` (centres undefined) [Rolipram] was tested, and the NF-kB reporter was 1.12.
With `Nc1nc(N)c2nc(-c3ccccc3)c(N)nc2n1` [Triamterene] the NF-kB reporter was 1.15.
In the case of `CN(C)CCN1C(=O)c2cccc3cc(N)cc(c23)C1=O` [Amonafide], the NF-kB reporter was 1.31.
Work on `CN1CCCC1CCOC(C)(c1ccccc1)c1ccc(Cl)cc1.O=C(O)/C=C/C(=O)O` (centres undefined) [Clemastine Fumarate] yielded an NF-kB reporter of 1.25.
`CC12C=CC(=O)C=C1CCC1C3CC(O)C(O)(C(=O)CO)C3(C)CC(O)C12F` (centres undefined) [Triamcinolone] gave an NF-kB reporter of 0.975.
In the case of `CC1CC2C3CCC4=CC(=O)C=CC4(C)C3C(=O)CC2(C)C1(O)C(=O)CO` (centres undefined) [Meprednisone], the NF-kB reporter was 1.22.
Molecule `CCS(=O)(=O)O.COC(=O)c1ccc2c(c1)NC(=O)/C2=C(\Nc1ccc(N(C)C(=O)CN2CCN(C)CC2)cc1)c1ccccc1` [Nintedanib Ethanesulfonate Salt] has an NF-kB reporter of 1.2.
`CCCCCCCCCCCCCCCCCCOP(=O)([O-])OC1CC[N+](C)(C)CC1` [Perifosine (KRX-0401)] showed an NF-kB reporter of 0.91.
With `CCC1(O)CC2CN(CCc3c([nH]c4ccccc34)C(C(=O)OC)(c3cc4c(cc3OC)N(C=O)C3C(O)(C(=O)OC)C(OC(C)=O)C5(CC)C=CCN6CCC43C65)C2)C1` (centres undefined) [Vincristine] the NF-kB reporter was 1.02.
`Cl.Nc1ccn(C2OC(CO)C(O)C2O)c(=O)n1` (centres undefined) [Cytarabine hydrochloride] gave an NF-kB reporter of 0.793.
`CC(=O)OC(C)C(C)C(=O)OCC12C3CC4(C)C(=CCC5C6(C)CCC(OC7OC(C(=O)[O][Na])C(OC8OC(CO)C(O)C(O)C8O)C(O)C7OC7OCC(O)C(O)C7O)C(C)(CO)C6CCC54C)C1CC(C)(C)C(O3)C2O` (centres undefined) [Sodium Aescinate] gave an NF-kB reporter of 1.35.
With `CCC(=O)OC1(C(=O)SCF)C(C)CC2C3CC(F)C4=CC(=O)C=CC4(C)C3(F)C(O)CC21C` (centres undefined) [Fluticasone propionate] the NF-kB reporter was 1.07.
